From the supplement of paper PMC10126150
Sequences with one replicate were seen in a single cluster, so their values are uncertain.
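Also: ATP exposure 15 min at 22 °C before imaging.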

Each sequence was assayed on ATP (assay: switch fluorescence ratio, 500 uM ATP over buffer (Cy3 cluster intensity, sum of 5 cycles each) (fold (ratio)); higher = stronger signal-on switching upon ATP binding; sequences stand for … in TCGTCGGCAGCGTCAGATGTGTATAAGAGACAGTTTTTTTTTTTTTTTTTTTTTTTTT…TC). Details: aptamer strand: ATP DNA aptamer (quencher-CACCTGGGGGAGTATTGCGGAGGAAGG + anchor), 100 nM annealed; ATP concentration: 500 uM; one replicate.
Outline: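 Clusters carrying Cy3-labelled switching strands on a modified Illumina MiSeq flow-cell were annealed to 100 nM quencher-labelled ATP aptamer and imaged in selection buffer. They were imaged again after 15 min with 500 uM ATP at 22 °C, over five buffer/ATP cycles with NaOH stripping and re-annealing in between. For each cluster, the fluorescence ratio is the summed Cy3 intensity of the target cycles divided by that of the buffer cycles, averaged per switch-domain sequence. Clusters outside 100-1000 RFU were left out.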
TGGGTGCGGA was tested, and the switch fluorescence ratio was 0.989. TGGGTGTCGA was tested, and the switch fluorescence ratio was 1.03. Sequence TGGGTTCAAC has a switch fluorescence ratio of 1.02. Work on TGGGTTCACA yielded a switch fluorescence ratio of 1.01. For TGGTAAAAGT, the switch fluorescence ratio was 0.97. In the case of TGGTACAGCA, the switch fluorescence ratio was 0.999. TGGTACGCGT showed a switch fluorescence ratio of 1.03. For TGGTACTTC, the switch fluorescence ratio was 0.974. Work on TGGTAGAGCC yielded a switch fluorescence ratio of 1. TGGTATCAGG gave a switch fluorescence ratio of 1.05. In the case of TGGTATG, the switch fluorescence ratio was 0.965. TGGTCACGG showed a switch fluorescence ratio of 1.01. TGGTCACGTT gave a switch fluorescence ratio of 1.03. TGGTCAGTCT gave a switch fluorescence ratio of 0.976. With TGGTCCGTCA the switch fluorescence ratio was 1. Work on TGGTCGCGCG yielded a switch fluorescence ratio of 1.01. Sequence TGGTCGGGCC has a switch fluorescence ratio of 1. With TGGTCGTAGC the switch fluorescence ratio was 0.954. With TGGTCTGAGG the switch fluorescence ratio was 1.02. TGGTCTTTCT was tested, and the switch fluorescence ratio was 1.02. With TGGTGCATTG the switch fluorescence ratio was 0.975. In the case of TGGTGCGCGA, the switch fluorescence ratio was 1.02. TGGTGCTCGT gave a switch fluorescence ratio of 1.03. For TGGTGGACCG, the switch fluorescence ratio was 1. In the case of TGGTGTAACG, the switch fluorescence ratio was 1.03. TGGTGTACGA gave a switch fluorescence ratio of 1.02. Work on TGGTGTCATA yielded a switch fluorescence ratio of 0.97. For TGGTGTTGTT, the switch fluorescence ratio was 1.01. With TGGTTAAAGC the switch fluorescence ratio was 0.976. TGGTTATACG showed a switch fluorescence ratio of 0.975. With TGGTTCCATT the switch fluorescence ratio was 0.95. With TGGTTCGAAA the switch fluorescence ratio was 1. TGGTTCGCGT gave a switch fluorescence ratio of 1.1. TGGTTCTTGA was tested, and the switch fluorescence ratio was 0.888. With TGGTTGACTG the switch fluorescence ratio was 0.95. TGGTTGCGGT showed a switch fluorescence ratio of 1.03. With TGGTTTAACC the switch fluorescence ratio was 0.998. In the case of TGGTTTTCAA, the switch fluorescence ratio was 1.02. For TGTAAACGAC, the switch fluorescence ratio was 0.984. For TGTAAATAAA, the switch fluorescence ratio was 0.994. Sequence TGTAACGAGT has a switch fluorescence ratio of 0.998. TGTAAGCAGA was tested, and the switch fluorescence ratio was 1.08. For TGTAAGGAGT, the switch fluorescence ratio was 1.04. Work on TGTAAGTAGT yielded a switch fluorescence ratio of 1.02. Work on TGTAAGTTGA yielded a switch fluorescence ratio of 1.03. With TGTAATAATG the switch fluorescence ratio was 0.952. For TGTAATATAT, the switch fluorescence ratio was 1.11. Sequence TGTAATCAGG has a switch fluorescence ratio of 1.02. Sequence TGTAATCCCT has a switch fluorescence ratio of 1.05. TGTACCAG gave a switch fluorescence ratio of 1.05. TGTACCAGTA showed a switch fluorescence ratio of 0.988. TGTAGATCGG gave a switch fluorescence ratio of 0.981. TGTAGCTAGT was tested, and the switch fluorescence ratio was 1.04. In the case of TGTAGTGGGG, the switch fluorescence ratio was 0.998. In the case of TGTATATACG, the switch fluorescence ratio was 1.04. TGTATGCCGG was tested, and the switch fluorescence ratio was 1.04. TGTATGGAAG showed a switch fluorescence ratio of 1.02. With TGTATTCAGC the switch fluorescence ratio was 0.913. For TGTATTTCGG, the switch fluorescence ratio was 0.976. With TGTCAAAGAA the switch fluorescence ratio was 1.03. In the case of TGTCAATTAG, the switch fluorescence ratio was 1.05. TGTCAGGCCT showed a switch fluorescence ratio of 0.97. With TGTCAGGGTC the switch fluorescence ratio was 1. Sequence TGTCAGTG has a switch fluorescence ratio of 1.04. TGTCGAAGGG showed a switch fluorescence ratio of 1.04. With TGTCGACAGA the switch fluorescence ratio was 0.973. Work on TGTCGATTAA yielded a switch fluorescence ratio of 1. For TGTCGCCGGT, the switch fluorescence ratio was 1. TGTCGGGCGA was tested, and the switch fluorescence ratio was 0.992. TGTCGTATTG was tested, and the switch fluorescence ratio was 1.01. With TGTCTAGG the switch fluorescence ratio was 0.97. Work on TGTCTGAGAA yielded a switch fluorescence ratio of 0.95. In the case of TGTCTTCGC, the switch fluorescence ratio was 0.965. Sequence TGTGAACATG has a switch fluorescence ratio of 1.04. TGTGAATCGT gave a switch fluorescence ratio of 0.996. Sequence TGTGATTCA has a switch fluorescence ratio of 0.964. Work on TGTGCAGGGT yielded a switch fluorescence ratio of 0.973. TGTGCATAAT was tested, and the switch fluorescence ratio was 1. Work on TGTGCATTAC yielded a switch fluorescence ratio of 2.02. Sequence TGTGCGATCC has a switch fluorescence ratio of 1.52. In the case of TGTGCGCCTC, the switch fluorescence ratio was 1.03. With TGTGCGTAG the switch fluorescence ratio was 0.976. In the case of TGTGCTGGGC, the switch fluorescence ratio was 0.992. For TGTGCTGGGG, the switch fluorescence ratio was 1.02. With TGTGCTTCTC the switch fluorescence ratio was 1.04. Sequence TGTGGAACGC has a switch fluorescence ratio of 1.01. TGTGGAAGCC showed a switch fluorescence ratio of 0.975. TGTGGCGACT gave a switch fluorescence ratio of 0.983. In the case of TGTGGCGCAG, the switch fluorescence ratio was 1.01. For TGTGGCTAG, the switch fluorescence ratio was 1. Work on TGTGGGATT yielded a switch fluorescence ratio of 0.964. Sequence TGTGGGCATG has a switch fluorescence ratio of 0.94. For TGTGGTAGAT, the switch fluorescence ratio was 1.01. Work on TGTGGTGGCT yielded a switch fluorescence ratio of 0.968. TGTGTACCCC gave a switch fluorescence ratio of 1.08. With TGTGTAGAAA the switch fluorescence ratio was 1.01. TGTGTAGCCG showed a switch fluorescence ratio of 0.982. TGTGTAGGCT gave a switch fluorescence ratio of 1.03. Sequence TGTGTGCTCT has a switch fluorescence ratio of 0.985. TGTGTTGAAG gave a switch fluorescence ratio of 0.956.
